Holding throughout (assay): cell count relative to DMSO control; melanoma cells; higher = more viable cells
Settings in all cases: library dose: low library concentration; 72 h

Test [1] relates to WM115.
The subject of test [2] is WM1716.
Test [3] concerns WM1745.
In test [4] the test system is WM3526.
In test [5] the test system is WM3619.
In test [6] the test system is WM451Lu.

The list shows a part of the results. Many values rest on one well or one pass, so single values are uncertain.
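Further: cell number obtained by counting DAPI-stained nuclei in high-throughput microscope images with image analysis software, screen run in 1,536-well plates.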

With `NCC(=O)Nc1ccc(-n2nc(C(F)(F)F)cc2-c2ccc3c(ccc4ccccc43)c2)cc1` + COc1ccc(COc2ccc(Cc3cnc(N)nc3N)cc2OC)cc1 [GW2580] (first compound 1 µM, partner dose 1 µM), the cell count in test [1] came to 85.6%; in test [2], 109%; in test [3], 86.6%; in test [4], 55%; in test [5] it was 119%; in test [6], 63.3%.

Take `C=CCn1c(=O)c2cnc(Nc3ccc(N4CCN(C)CC4)cc3)nc2n1-c1cccc(C(C)(C)O)n1` + COc1cc(N2CCC(N3CCN(C)CC3)CC2)ccc1Nc1ncc(Cl)c(Nc2ccccc2S(=O)(=O)C(C)C)n1 [NVP-TAE684] (first compound 0.02 µM, partner dose 0.08 µM): the cell count in test [1] turned out to be 78.1%; in test [2], 89.4%; in test [3], 81.3%; in test [4], 100%; in test [5] it was 67.7%; in test [6] it was 110%.

Turning to `C[C@]1(c2nc3c(C(N)=O)cccc3[nH]2)CCCN1` [Veliparib] + O=C(O)C(=O)Nc1sc2c(c1C(=O)O)CCNC2 [TCS401] (first compound 1.4 µM, partner dose 1.66667 µM), the cell count in test [1] came to 85.6%; in test [2] it was 96.6%; in test [3] it was 80.3%; in test [4], 103%; in test [5], 91.5%; in test [6], 125%.

Turning to `CO[C@@H]1[C@H](N(C)C(=O)c2ccccc2)C[C@H]2O[C@]1(C)n1c3ccccc3c3c4c(c5c6ccccc6n2c5c31)C(=O)NC4` [Midostaurin] + OCCn1cc(-c2cnc3nnn(Cc4ccc5ncccc5c4)c3n2)cn1 [PF04217903] (first compound 0.08 µM, partner dose 1 µM), the cell count in test [1] came out at 115%; in test [2], 119%; in test [3], 98.3%; in test [4], 114%; in test [5], 109%; in test [6], 106%.

Take `CN(C)S(=O)(=O)c1ccc2c(c1)/C(=C/c1cc3c([nH]1)CCCC3)C(=O)N2` + COc1ccc(COc2ccc(Cc3cnc(N)nc3N)cc2OC)cc1 [GW2580] (first compound 0.4 µM, partner dose 1 µM): the cell count in test [1] is 79.2%; in test [2] it was 113%; in test [3], 91.5%; in test [4], 104%; in test [5] it was 99.3%; in test [6], 114%.

The values above are taken from the supplement of paper PMC4604168 (melanoma cell lines).
